From ChEMBL document CHEMBL4888484, “Replenishing the malaria drug discovery pipeline: Screening and hit evaluation of the MMV Hit Generation Library 1 (HGL1) against asexual blood stage Plasmodium falciparum ,using a nano luciferase reporter read-out” (2022)
The campaign covered roughly 150,000 compounds. About 540 (0.36%) showed an effect of 50% or more. The list shows a part of the results.

These molecules were tested on Plasmodium falciparum (assay: Primary screen in NF54 nanoGlo assay, in single point, at 2uM, 72h; a lower Z score goes with more inhibition). Conditions: timepoint 72 hour.
Assay type: functional, Erythrocyte

SMILES	% Inhibition	Z score
COc1ccccc1N1CCN(C(=O)Cn2ncn3nc(-c4cc(C)ccc4C)cc3c2=O)CC1	33%	-3.67
CCO[C@@H](C)c1nccn1Cc1nc(-c2ccccc2)oc1C	5%	-0.61
O=C(CCN1CCc2sccc2C1)NC1CCCCC1	3%	-0.46
COc1cc(C)ccc1OCCN1CCN(C)[C@]2(CCC(=O)N(C)CC2)C1	-8%	1.31
COc1ccc(-c2cc(C(=O)N3CCN(c4ccccc4Cl)CC3)c(C)n2-c2ccc(F)cc2F)cc1	-7%	0.66
Cc1ccc(F)c(N2CCCC(NC(=O)C3COCCO3)C2)c1 (stereo not drawn)	14%	-1.52
CCCn1cc(S(=O)(=O)Nc2cc(C)ccc2C)c2cccnc21	-2%	0.41
Cc1nc2nc(-c3cccs3)nn2c(C)c1CC(=O)N1CCCCC1	-8%	0.94
COC[C@H]1CN(Cc2noc(C3CC3)n2)CCO1	2%	-0.31
CC(=O)N1CCC[C@H](c2nnc(N3CCC4(CCCCC4)CC3)n2C)[C@@H]1C	0%	0.03
CCN(CC)C(=O)c1sc(C)nc1C	-2%	0.18
CC(C)N1CCC(NC(=O)c2ccc(-c3cnn4ccccc34)cc2)CC1	-18%	2.01
CCCCn1nnnc1CNCCn1cc(C)cn1	-9%	1.34
CC(C)[C@H]1CN(c2ccncc2F)C[C@@H]1N(C)C	-18%	1.7
COc1ccc2[nH]c3c(c2c1)CCN(C(=O)c1cc(F)cc(F)c1)[C@H]3c1ccc(-c2ccccc2C(F)(F)F)o1	-13%	1.31
O=C(NCc1nc(-c2ccco2)n[nH]1)[C@@H]1CCCN1c1ncnc2ccccc12	-1%	0.11
COCCNC(=O)[C@@H]1COC2(CCN(C(=O)c3ccc(F)cc3F)CC2)N1C(=O)c1ccc(F)cc1	0%	-0.02
CC(C)(N)c1ccccc1Br	-7%	0.85
CC(C)(CNC(=O)CC(=O)NCC(F)(F)F)c1cccs1	-6%	0.82
O=C(O)CO[C@H]1COCC[C@@H]1NC1CCN(c2ccc(Cl)cc2)CC1	-11%	2.14
CC1(C)CCc2onc(CN3CCOc4ccccc4[C@@H]3CO)c2C1	-14%	1.73

SMILES	% Inhibition	Z score
COc1cc(Cc2ncnn2C(C)(C)C)cc(OC)c1OC	2%	-0.32
CCN1CCN(C(=O)CCc2cc3ccccc3[nH]c2=O)[C@@H](C)C1	-14%	2.26
CO[C@H]1C[C@@H](O)C12CCN(C(=O)c1ncccc1O)CC2	-11%	1.51
c1cnn(C2CN(Cc3cscn3)C2)c1	2%	-0.32
C[C@H](O)c1nc2cc(-n3ccnc3-c3ccc(-c4cc[nH]n4)o3)ccc2n1C	1%	-0.14
CC(=O)N1c2cc(S(=O)(=O)N3CCN(c4ccccc4Cl)CC3)c(Br)cc2C[C@@H]1C	-12%	1.14
CNC(=O)C[C@H](C)N(C)C(=O)c1ccc(-c2ccc3c(c2)CCC3=O)cc1	-3%	0.57
Cc1ccc(C)n1CC(=O)Nc1ccccc1-c1nnn(C)n1	9%	-1.14
CN1CCN(c2cc(-n3ccnc3)ncn2)C[C@@H]1CO	-4%	0.81
CC(CN(C)C(=O)NCC1Cc2ccccc21)c1nccs1 (stereo not drawn)	-7%	0.58
C[C@@H](CCc1ccccc1)NC(=O)C1CCN(S(=O)(=O)N2CCCC2)CC1	-7%	1.06
CC(C)(C)OC(=O)NC[C@H]1C[C@H](NC(=O)c2ccc(O[C@H]3CC3(F)F)cc2)C1	-13%	1.76
COCCc1noc(Cn2cnnc2)n1	3%	-0.45
O=C1CCN(C(=O)c2ccoc2C2CC2)[C@H](C2CC2)C1	14%	-1.79
CN1CCCN(C(=O)C[C@H]2COCCN2Cc2ccccc2F)CC1	-4%	0.49
CCOC1(C)CCN(c2cncc(C#N)n2)CC1	1%	-0.13
Cc1ccc(S(=O)(=O)N2CCC3(CC2)CCC(O)(CN2CCCC2)CC3)cc1	-4%	0.42
Cc1cc(NC(=O)NCCc2c[nH]cn2)n(CC(C)C)n1	1%	-0.21
COc1ccc(-c2nn(-c3ccccc3F)cc2CN2CCC[C@H]2C(N)=O)cc1	-11%	1.26
COc1ccc(Cc2noc([C@@H]3COCCN3C(C)=O)n2)cc1OC	-12%	1.35
O=C(O)c1ccc(CN2CCC[C@H]2Cn2cc(C3CC3)nn2)cc1Cl	1%	-0.29

SMILES	% Inhibition	Z score
Cc1ncn(Cc2ccc(Cn3cnc(C)c3C)cc2)c1C	-4%	0.65
CC1=C(C(=O)N2C[C@H]3CC=CC[C@H]3C2)C(C)NC(=O)N1 (stereo partly drawn)	-13%	2.39
Cn1cccc1CN[C@@H](CC(N)=O)C1CCCCC1	-13%	1.36
CCOCCCNC(=O)c1c(C)noc1-c1ccncc1	-3%	0.67
O=C(NCc1cccnc1)[C@H]1CCCN(c2nc3cccnc3s2)C1	-17%	1.49
CC(C)(C)n1cc(NC(=O)[C@@H]2COCCN2C2CCCC2)cn1	-10%	1.27
COCCn1c(C)cnc1CCNC(=O)COC	-1%	0.1
Cc1ccsc1C(=O)N1CC[C@@]2(CCCN(CC3CC3)C2=O)C1	6%	-1.22
CC(C)(C(=O)N1CCC(C)(C)S(=O)(=O)CC1)C1CCOCC1	-9%	0.94
CCOCCCNC(=O)[C@H]1CCCN(c2nccnc2Oc2ccc(C)cc2)C1	-5%	0.95
Cc1ccccc1C(=O)N1CC=C(C(=O)N2CCCC2)CC1	-5%	0.87
Cc1ccc(CN2C(=O)OC(c3cccc(NC(=O)c4cccc(Cl)c4)c3)C2C(=O)NCc2ccco2)cc1 (stereo not drawn)	-11%	1.07
O=C(c1ccoc1Cl)N1CCCC1C1CCCC1O (stereo not drawn)	-6%	0.58
CN1C[C@@H]2CCC[C@H]1CN(C(=O)CCc1cn[nH]c1)C2	3%	-0.46
Cc1cccc(NC(=O)N(Cc2ccncc2)C2CC2)c1C	-7%	0.58
O=C(NC1CCCC1)C(c1ccccc1)c1ccccc1	-1%	0.15
Cc1c(Cl)cccc1NC(=O)CCNC(=O)NCc1ccco1	2%	-0.23
CC(C)=CCN1C[C@@H]2CC[C@H]1CN(C(=O)c1ccc(-c3ccccc3)[nH]c1=O)C2	-10%	1.97
CCn1cc(-c2cc(C(F)(F)F)nc(N3CCCC3)n2)cn1	36%	-0.9
COc1ccc(OCc2nc(C(=O)NCc3ccccc3C)co2)cc1	-7%	1.36
Cc1cc(Cl)cc2c1NC(=O)C21NC(Cc2c[nH]c3ccccc23)C2C(=O)N(c3ccc(F)c(Cl)c3)C(=O)C21 (stereo not drawn)	-5%	0.97

SMILES	% Inhibition	Z score
C#CCCN1CCN(C(=O)[C@@H](C)CC(=O)c2ccccc2F)CC1	-10%	1.45
COc1ccc(CC(=O)Nc2nnc(-c3cc4cccc(OC)c4o3)o2)cc1	-19%	2.2
CCc1ccc(C(=O)N2CCCN(c3nc(CC(C)C)nc4onc(-c5ccc6ccccc6c5)c34)CC2)cc1	5%	-0.99
O=C1CCC[C@@H]2CN(Cc3ccc4c(c3)CCO4)C[C@@H]2N1	33%	-3.79
C[C@@H](C(=O)N(C)c1ccccc1Oc1ccccc1)n1cncn1	-5%	0.69
CC(C)S(=O)(=O)CC(=O)N(C)c1ccc(Cl)cn1	3%	-0.62
COc1ccnc(N[C@H]2CCc3ncnn3C2)n1	-6%	1.06
CC(C)c1cccc(CN(C)CCc2ccncc2)n1	-14%	1.46
CC(C)c1nc(CCNc2ncnc3c2CCNC3)no1	11%	-1.38
Cc1ccc(OC[C@H]2CCC(=O)N2)nc1	4%	-0.58
Cc1cnccc1CNC(=O)N[C@@H]1C=C[C@H](CO)C1	-36%	4.28
CC(C)c1csc(C(=O)N[C@@H]2C[C@H]3C(=O)NCC(=O)N3C2)n1	-12%	1.77
CCCC(=O)N1CCCN(c2nc(-c3cccc(OC)c3)no2)CC1	-9%	1.14
CC(C)(C)CNc1ccc(C(N)=O)c(Cl)c1	4%	-0.61
COc1ccc2c(c1)c(CN1CCC[C@H](OCc3noc(C)n3)C1)cn2C	-5%	0.71
Cn1nc(NC(=O)c2ccccc2)c2c1CCN(C(=O)c1ccsc1)C2	-16%	1.41
COc1ccc2c(c1)CCc1c(C(=O)N3CCC(Cc4nc(C5CCOCC5)no4)CC3)n[nH]c1-2	-2%	0.28
Cn1c(COc2ccc(-c3ccccc3)cc2Cl)cc(=O)n(C)c1=O	-10%	1.03
Cc1cc(C(=O)Cn2cc(C[C@H](O)c3ccccn3)nn2)c(C)n1-c1nccs1	-10%	1.21
CS(=O)(=O)NC1CCCCC1CNC(=O)C1CC1(F)F (stereo not drawn)	-1%	0.2
c1ccc(-c2cc(-c3nnc4n3CCCCC4)[nH]n2)cc1	26%	-2.96
